The text below walks through data of PubChem BioAssay AID485344 (National Center for Advancing Translational Sciences (NCATS), 2010).

Screen size: about 340,000 compounds; about 6,900 (2%) were called active. No stated cut-off is given here; in the data, active means inhibition above about 30%; inactive means below that, where a call was filed. The list shows a part of the results, in another mix than the full data. Where no call is shown, the source filed none.

The target of the assay is D(2) dopamine receptor (Homo sapiens) (UniProt P14416). Nature of the assay: HTS Assay for Allosteric Antagonists of the Human D2 Dopamine Receptor: Primary Screen for Antagonists. Further: 0% is about no effect. The note with it: HEK293 TREx D2 cells, calcium flux, dopamine EC80; at 10 µM; stronger effect = higher value. The method, boiled down: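 Measurement of antagonist activity uses fluorescent calcium dye in inducible HEK293 T-REx D2 cells: 10 s baseline, compound addition with 180 s read, EC80 dopamine addition with a further 180 s read.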
Sequence of UniProt P14416 (P14416 whole entry, looked up): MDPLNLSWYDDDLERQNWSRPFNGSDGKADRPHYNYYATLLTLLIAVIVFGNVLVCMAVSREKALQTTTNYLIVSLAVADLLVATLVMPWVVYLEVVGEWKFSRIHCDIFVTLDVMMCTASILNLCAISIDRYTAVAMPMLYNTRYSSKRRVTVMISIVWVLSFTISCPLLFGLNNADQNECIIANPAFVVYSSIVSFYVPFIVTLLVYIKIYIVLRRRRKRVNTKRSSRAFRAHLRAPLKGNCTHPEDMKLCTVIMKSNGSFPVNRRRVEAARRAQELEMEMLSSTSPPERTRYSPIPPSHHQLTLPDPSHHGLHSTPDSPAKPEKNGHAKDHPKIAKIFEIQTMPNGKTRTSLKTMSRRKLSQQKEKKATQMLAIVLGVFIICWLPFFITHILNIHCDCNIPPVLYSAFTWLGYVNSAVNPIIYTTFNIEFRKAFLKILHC
As a reminder, the inhibition is the change of the read-out against control, counted positive when it falls. Regarding `Nc1nc(Nc2ccccc2F)sc1C(=O)c1ccc(Cl)cc1`, the inhibition stood at 4.62%.
In the case of `O=C(c1ccccc1Cl)N1c2ncnn2C2(CCCCC2)[C@@H]2CCCC[C@@H]21`, the inhibition was found to be 27.2%.
`COC(=O)c1ccc(OCC2c3cc(OC)c(OC)cc3CCN2C(=O)COc2ccc(Cl)cc2)cc1` (stereo not given): the inhibition came out at 15.1%.
The figure for `CN(C1=NC(=O)C(CC(=O)Nc2ccc(Br)cc2)S1)c1ccc(O)cc1` (stereo not given) is active: 40.4%; for `COc1ccc(Cc2nc3ccccc3[nH]c2=O)cc1` it is -5.59%; for `CCOC(=O)c1c(NC(=O)OC)sc(C(=O)N(C)C)c1C` it is active: 69.4%.
Next, `C=Cc1ccc(Cn2c(C)c(CNCc3cccc(Br)c3)c(C(=O)O)c2C)cc1`: 15.3%.
As for `Cc1cccc(Cn2c(CNS(=O)(=O)c3ccc4c(c3)CCCC4)nc3cccnc32)c1`, the inhibition amounted to 3.5%.
On to `Cc1c(Cl)cccc1-c1ccc(C(=O)Nc2ccc(F)cc2)o1`, for which the inhibition is 6.99%.
The figure for `COc1ccc(OC)c(-c2nnc3n(Cc4ccc(C)cc4)c(=O)c4ccccc4n23)c1` is 4.76%; for `CCN(CC)C(=O)CSc1nc(-c2ccccc2F)nc2c1Cc1c(CO)cnc(C)c1O2` it is -2.87%.
For the molecule `CC(C)(C)OC(=O)N1CCC(c2c(C(=O)N3CCCCC3)cnn2-c2ccc(Cl)cc2)CC1`, the inhibition is -1.15%.
For `CCOc1cc(C(=O)NCCc2csc3nc(-c4ccc(C)cc4)nn23)cc(OCC)c1OCC`, the inhibition was 0.0618%.
The figure for `NC(=O)CC(NC(=O)Cc1cccc2ccccc12)c1ccc(NC2CCN(Cc3ccccc3)CC2)c([N+](=O)[O-])c1` (stereo not given) is active: 32.1%; for `Cc1ccc2oc3c(c(=O)c2c1)C(c1ccc(F)cc1)N(Cc1ccc2c(c1)OCO2)C3=O` (stereo not given) it is -5.77%; for `COc1ccccc1CCNC(=O)C(=O)NCC(c1ccc2c(c1)OCO2)N1CCOCC1` (stereo not given) it is 1.47%.
Next, `CC(=O)c1cccc(NC(=O)c2sc(-n3nc(C)c(Cc4ccc5c(c4)OCO5)c3C)nc2C)c1`: 1.87%; `COc1ccccc1OCC(=O)NCC(c1ccc(Cl)cc1)N1CCCCC1` (stereo not given): 20.9%.
The figure for `CCN(C(=O)C1CCN(S(=O)(=O)c2ccc3c(c2)CCCN3C(C)=O)CC1)c1cccc(C)c1` is -14.3%; for `Cc1c(Cl)cccc1NC(=O)Cn1c(CCC(=O)O)ccc1-c1cccs1` it is 16.1%.
Consider `CCOC(=O)c1c(NC(C)=O)c2c3c(sc2n1Cc1nc(-c2cccc(Cl)c2)oc1C)CCCC3`, for which the inhibition was determined as 4.95%.
As to `COc1ccc2c(c1)CCc1c(C(=O)Nc3c(C)nn(Cc4ccc(Cl)cc4)c3C)noc1-2`, the inhibition is 16.9%.
Next, `CNS(=O)(=O)c1ccc(C(C)(C)C)cc1`: active: 64.7%.
The figure for `O=C(O)CCC(=O)N1CCc2cc(S(=O)(=O)N3CCC(Cc4ccccc4)CC3)ccc21` is active: 34%; for `Cc1cccc(C)c1NC(=O)CCS(=O)(=O)c1ccc2c(c1)CC(C)N2C(=O)C1CC1` (stereo not given) it is -14.9%.
The figure for `CCOc1ccc(NC(=O)Cn2nnc(C(=O)NCc3cccs3)c2N)cc1` is 23.4%.
In the case of `COc1ccc(/C=C\c2onc(C)c2S(=O)(=O)N2CCC(C(=O)Nc3cccc(C)c3C)CC2)cc1`, the inhibition was found to be 0.37%.
Next, `O=c1[nH]c2ccc(NCc3ccc(-c4ccc(Cl)cc4)o3)cc2[nH]1`: -19.5%; `CCOc1ccccc1Nc1nc(-c2ccc(C)cc2)c(CC(=O)O)s1`: -6.6%; `Cc1ccc(NC(=O)CN2C(=O)CC(c3ccc(F)cc3)=Nc3ccccc32)cc1F`: 10.9%.
Regarding `COc1ccc(CN(C(=O)Nc2cccc(OC)c2)C2CCN(C(C)=O)CC2)cc1`, the inhibition was found to be 10.9%.
Next, `COc1cccc(CNC(=O)CN2C(=O)N(c3c(C)cccc3C)S(=O)(=O)c3ccccc32)c1OC`: -4.28%.
For the molecule `COc1ccc(C2c3c(oc4ccc(Cl)cc4c3=O)C(=O)N2CCCN(C)C)cc1OC` (stereo not given), the inhibition was determined as 16.1%.
Next, `COc1ccc(OC)c(NC(=O)C(C)n2nc(C)c3c(C)n(-c4ccccc4)nc3c2=O)c1` (stereo not given): 0.483%; `Cc1nc(-n2nc(C)c(Cc3ccc(Cl)cc3)c2C)sc1C(=O)N1CCCCC1C` (stereo not given): -9.31%; `Cc1ccc(C)c(Cn2c3ccccc3c3cnn(CC(=O)NCC(C)c4ccccc4)c(=O)c32)c1` (stereo not given): 4%.
The figure for `O=C(CSCc1ccccc1Cl)NCc1ccc(Cl)c(Cl)c1` is 0.883%.
The figure for `CCc1nnc(NC(=O)c2ccc(COc3ccc(C)cc3)o2)s1` is active: 30.2%.
For the molecule `CC1=C(C(=O)OCc2ccc3c(c2)OCO3)C(c2ccccc2)NC(=O)N1` (stereo not given), the inhibition is active: 44.5%.
Next, `O=C(COC(=O)/C=C/c1ccc(OC(F)F)cc1)NC1CCCC1`: active: 32.2%; `CC(=O)c1ccc(Nc2nc3ccccc3nc2-n2nc(C)cc2C)cc1`: 9.29%; `CC(=O)c1cccc(NC(=O)Cn2c(=O)oc3cc(S(=O)(=O)NC4CCCC4)ccc32)c1`: -0.264%.
The figure for `CC(=O)N1CCN(c2nc3c(C)ccc(Cl)c3s2)CC1` is -25.2%; for `Oc1c(C(c2ccccc2Cl)N2CCOCC2)sc2nc(-c3ccco3)nn12` (stereo not given) it is 27%.
Next, `CCC(=O)N1CCc2cc(CNC(=O)Nc3cc(C)ccc3C)ccc21`: -14.9%.
Consider `C/C=C/c1ccc(OCCCCN2CC(C)CC(C)C2)c(OC)c1` (stereo not given), for which the inhibition was active: 38%.
Turning to `Cc1ccc(-c2nnc(Nc3ccc(Cl)c(Cl)c3)c3ccccc23)cc1S(=O)(=O)N(C)C`, the inhibition came out at 12.3%.
In the case of `COc1ccc(CCNS(=O)(=O)c2ccc(F)c(C(=O)Nc3ccc(Cl)cc3)c2)cc1OC`, the inhibition is -21.5%.
The figure for `Cc1cc(C)cc(NC(=O)c2ccc3c(O)c(S(=O)(=O)c4ccccc4)c(=O)[nH]c3c2)c1` is -3.08%; for `O=C(Cc1c(F)cccc1Cl)Nc1cccc(S(=O)(=O)NC2=NCCCCC2)c1` it is active: 31.1%; for `COc1cc(Cl)c(C)cc1NC(=O)c1ccc(CN2C(=O)CCn3nc(C)cc32)cc1` it is -6.23%.
In the case of `Cc1c(Cl)cccc1NC(=O)CSc1ncc(S(=O)(=O)c2ccc(C(C)C)cc2)c(=O)[nH]1`, the inhibition is 7.35%.
The figure for `CCCCOC(=O)c1ccc(NC(=O)Cc2coc3c(C)c(C)ccc23)cc1` is -5.12%.
Next, `CCC1(C)N=C(N)Nc2nc3cc(C)c(C)cc3n21` (stereo not given): active: 35.4%; `CCOC(=O)c1c(C)[nH]c(C)c1S(=O)(=O)N1CCCC(C(=O)Nc2ccc(C)c(N(C)C)c2)C1` (stereo not given): 0.563%; `CCNC(=O)C1CCCN(c2nnc(C)c3c(C)n(-c4ccc(C)cc4)nc23)C1` (stereo not given): -7.6%.
The figure for `Cc1ccc(OCC(=O)N(Cc2ccco2)c2ccccn2)cc1` is -12.3%; for `CCc1ccccc1NC(=O)Cc1cn(C)c2ccccc12` it is 16.3%.
Regarding `O=C(Nc1c(O)c2ccccc2oc1=O)c1cccc(F)c1`, the inhibition was -2.91%.
Regarding `Cc1ccc(Nc2ncnc3onc(C)c23)cc1Cl`, the inhibition turned out to be 6.76%.
The figure for `CCOc1ccc(S(=O)(=O)Nc2cccc(C)c2)c2cccnc12` is -3.84%; for `CCn1cc(C(=O)N2CCN(c3ccccc3)CC2)c(=O)c2cc(S(=O)(=O)N3CCCC3)ccc21` it is 7.65%; for `O=C(Cn1c(=O)nc(-c2ccccc2F)c2cc(Cl)ccc21)Nc1ccccc1C(F)(F)F` it is 7.65%.
Next, `Cc1ccc(-c2nc3nc(C)cc(N4CCN(c5cccc(C)c5)C(C)C4)n3n2)cc1` (stereo not given): 2.11%; `COc1cc2oc(=O)c(CC(=O)NCCc3ccccc3F)c(C)c2cc1OC`: 3.54%.
Next, `O=C(NCc1cccs1)c1nn(-c2ccccc2F)nc1CO`: -7.3%.
`CCCCNC(=O)Cn1ncc2c(C)n(Cc3cccc(Cl)c3)c(C)c2c1=O`: the inhibition was found to be 9.57%.
Next, `CCCCN(C)CCCNC(=O)CN1C(=O)CSc2ccc(S(=O)(=O)N3CCOCC3)cc21`: 3.06%.
Next, `COc1ccc(-c2nn(CC(=O)NCc3ccccc3)c3c2cnc2ccc(F)cc23)cc1`: 3.83%.
Next, `COc1c(O)ccc2c1CN1CCc3cc4c(cc3C1C2)OCO4` (stereo not given): active: 74.1%; `COc1ccccc1C(=O)N1c2ccccc2C(C)(c2ccc(Cl)cc2)CC1(C)C` (stereo not given): -3.79%; `Oc1c(Cl)cc(Cl)c2c1NCCC2`: active: 39.2%.
As for `COC(=O)CSc1nc2sc3c(c2c(=O)n1Cc1ccccc1)CCC(C(C)(C)C)C3` (stereo not given), the inhibition came out at 4.06%.
Next, `CCc1ccc(CNC(=O)c2nn(-c3ccc(OC)c(Cl)c3)c(=O)c3c2c2ccccc2n3C)cc1`: -14.4%; `COc1ccc(-c2c3c(nc4sc(C(=O)Nc5ccccc5F)c(N)c24)CC(C)(C)CC3=O)cc1`: 17.4%; `CCN(Cc1ccccc1)C(=O)CN1C(=O)CSc2ccc(S(=O)(=O)N(CC)CC)cc21`: -3.85%.
The figure for `O=C(Nc1ccc(S(=O)(=O)N2CCCCC2c2cccnc2)cc1)c1ccc(F)cc1` (stereo not given) is 5.76%; for `COc1ccc(NC(=O)c2cc(S(=O)(=O)N3CCCCC3)cn2C)cc1Cl` it is 16.2%.
Next, `CCCC(CCC)C(=O)Nc1nnc2n1CCS2`: 8.82%.
Consider `CCc1nnc2c3ccccc3nc(Nc3ccc(F)c(Cl)c3)n12`, for which the inhibition is -7.06%.
Next, `O=C(Nc1ccc(Cl)cc1)c1cc2c(Cl)nc3ccccc3c2s1`: 20.7%; `Cc1cccc(N(C)C(=O)c2cc(S(=O)(=O)N3CCCCC3)c[nH]2)c1`: 2.08%; `CN(C)c1ccc(-c2noc(C3CC(=O)N(c4ccc5c(c4)OCCO5)C3)n2)cc1` (stereo not given): 12.6%.
Next, `CCc1ccc(S(=O)(=O)c2nnn3c2nc(NCc2cccc(OC)c2)c2cc(Cl)ccc23)cc1`: 6.14%; `COc1ccccc1CNC(=O)c1ccc2c(c1)nnn2C1CCCC1`: -1.17%; `Cc1ccc(NC(=O)N2CCN3CCCCC3C2)cc1F` (stereo not given): -2.78%.
The figure for `Cc1ccsc1CN(C(=O)c1ccc(Br)cc1)C1CCS(=O)(=O)C1` (stereo not given) is -0.457%.
On to `O=C(Nc1cccc(-c2nc3ccccc3[nH]2)c1)c1ccccc1F`, for which the inhibition is 9.07%.
Next, `COc1ccccc1NC(=O)Cn1cc(C(=O)c2ccncc2)c(=O)c2cc(C)ccc21`: 7.72%; `Cc1cc(=O)[nH]c2nnc(SCC(=O)Nc3ccc(F)cc3F)n12`: 16.9%.
In the case of `COc1ccc(Cl)cc1NC(=O)C1CCN(S(=O)(=O)c2ccc3c(c2)CCCN3C(=O)C2CCC2)CC1`, the inhibition amounted to 23%.
Next, `C=CCc1ccccc1OCCn1c(C2CC(=O)N(Cc3ccc(F)cc3)C2)nc2ccccc21` (stereo not given): 24.9%; `Cc1ccc2nc(-c3cccc(Cl)c3)c(Nc3ccc4c(c3)OCO4)n2c1`: -5.06%.
Regarding `Cc1ccc(C)c(NC(=O)N2CCc3cc(S(=O)(=O)N4CCC(C)CC4)ccc32)c1`, the inhibition stood at 6.41%.
The figure for `COc1ccccc1CCNC(=O)C(=O)NCC(c1cccs1)S(=O)(=O)c1ccc(F)cc1` (stereo not given) is 10.1%.
